Source: PMC6212790
This is one part of the list. At the low end of the ranking, values are background and their order means little.

target: T1, GST-Rok (full length) (UniProt O34857); experiment: protein binding microarray; conditions: Rok is a gene silencer of Bacillus subtilis; high values mean tight binding; most listed sequences are background and not binding sites; double strand, one strand shown;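 further: rank score from −0.5 (least bound) to 0.5 (best bound)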
T1 sequence: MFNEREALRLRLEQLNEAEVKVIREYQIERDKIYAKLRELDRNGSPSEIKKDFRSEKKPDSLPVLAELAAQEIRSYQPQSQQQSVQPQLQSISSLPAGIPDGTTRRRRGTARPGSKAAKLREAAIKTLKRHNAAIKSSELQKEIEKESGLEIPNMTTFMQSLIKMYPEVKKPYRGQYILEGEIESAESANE

| Sequence | binding signal [E-score] |
| --- | --- |
| TCGGTACA | 0.201 |
| CGGACTAG | 0.0761 |
| AACGGTGG | 0.0395 |
| TATCGAGA | 0.102 |
| CCACGCGA | -0.062 |
| CGGCGCAG | -0.295 |
| CCACGACC | -0.232 |
| TAGGTAGA | 0.361 |
| ATCACCCA | -0.067 |
| ACTACCGC | 0.245 |
| CCATGTCG | -0.041 |
| AATAGATC | 0.14 |
| AGCATAGA | -0.0379 |
| GGTCAGAA | -0.00663 |
| ACGGGCCT | -0.372 |
| CATAAGGG | -0.102 |
| TCATCTCA | -0.0432 |
| ATCGTTTA | -0.0103 |
| AATCCCCC | -0.386 |
| AATTATGA | 0.157 |
| CGCCTAGC | -0.133 |
| AGGTGGTA | 0.124 |
| ACCGCCTA | -0.0824 |
| ACGTCAGG | -0.293 |
| AGTGCATC | 0.0814 |

| Sequence | binding signal [E-score] |
| --- | --- |
| TGCATGCA | -0.0838 |
| CCTGAGCG | -0.245 |
| CTGCGAAC | -0.0535 |
| CGTTGTGA | 0.127 |
| CTAGCCAC | 0.0157 |
| ATAGTACG | 0.265 |
| TTCACCAA | 0.0933 |
| TCTTGCCA | -0.162 |
| AGTGATGG | -0.0102 |
| CACAAACC | -0.0528 |
| CTATCCGA | 0.107 |
| ATCTGTAC | 0.152 |
| CCATCTAA | 0.138 |
| CTGGTCTA | -0.0345 |
| CGCTCTCA | -0.178 |
| ACGGGCAC | -0.186 |
| CAGCCTGC | -0.0412 |
| CCTCCGCC | -0.31 |
| ATTTTTAA | -0.0198 |
| ACCTTACA | 0.0529 |
| GTTTAAAC | 0.095 |
| AACCTACT | 0.249 |
| GTAACCAA | 0.0602 |
| CAGGGGAC | -0.324 |
| ATCTGTGG | -0.0438 |

| Sequence | binding signal [E-score] |
| --- | --- |
| AACTATTC | 0.315 |
| GGATCGGA | -0.205 |
| AGCCAGCC | -0.288 |
| AGCTTGTC | 0.00488 |
| CTACGAGA | 0.181 |
| CGAACTCC | -0.196 |
| AACGCAGA | -0.207 |
| AAGTAAGC | 0.0748 |
| CGGGTTAG | -0.117 |
| ATACACCG | 0.0288 |
| AGTATCCG | 0.0731 |
| ATCACTGC | -0.155 |
| TGCAGAAA | -0.0501 |
| GGGTGATA | 0.135 |
| AGAGCCGG | -0.396 |
| CACTAACG | 0.00614 |
| AGAAGTCC | -0.0675 |
| ATTGTTAA | 0.218 |
| TACCTCTA | 0.22 |
| CGAATCAG | 0.0152 |
| AGAGCTGA | -0.124 |
| CTTAAGCA | -0.0622 |
| ATGGAAGC | -0.0504 |
| CAATGTCC | -0.116 |
| AACCGGCA | 0.13 |

| Sequence | binding signal [E-score] |
| --- | --- |
| AGCAGTAG | 0.165 |
| CAGCGTAA | 0.0823 |
| AGATGGTG | 0.138 |
| CGCCGGCC | -0.303 |
| GAGCATTA | 0.0953 |
| AATTTGGC | 0.000203 |
| AGTCGAAA | 0.0407 |
| ACTTTATC | 0.171 |
| CAGGACGC | -0.257 |
| GTCCCAAC | -0.0888 |
| GTAACAAA | 0.138 |
| GATGTGAC | 0.033 |
| AGGCCGTG | -0.268 |
| TACCTCGA | 0.205 |
| AGGACGGG | -0.241 |
| ATTCAGCC | -0.0991 |
| ATTTTTCA | -0.0526 |
| ATGCACCG | -0.00205 |
| CCGCTGAC | -0.15 |
| ATCTAACA | 0.236 |
| CTTAGCCA | -0.0361 |
| CGCGATAA | 0.126 |
| CCGCCTGC | -0.397 |
| ATATATTA | 0.467 |
| AGCCCGCA | -0.256 |

| Sequence | binding signal [E-score] |
| --- | --- |
| CGGGTGAC | -0.349 |
| CCTCCCAG | -0.241 |
| GACTATAA | 0.178 |
| CGTCGTGA | -0.0498 |
| CATGAACG | -0.0373 |
| ACGCATAT | 0.0953 |
| AACTCTCG | 0.0625 |
| AGAGAGAT | 0.0321 |
| TAGACAGA | 0.0181 |
| GCAACGAA | 0.0403 |
| GGTATGTA | 0.319 |
| CTGTGCGA | -0.251 |
| CCACTCAG | -0.0521 |
| ACCCAGCT | 0.0254 |
| ACAATCTC | 0.101 |
| ACGAAACC | -0.0947 |
| GAGAGTCA | -0.122 |
| CTACAGGC | -0.0508 |
| GCCTGCAA | -0.243 |
| GTCAGCTA | -0.00978 |
| AGCTTGGA | -0.00195 |
| ACTAGCGA | 0.163 |
| ACGGAGCG | -0.13 |
| AATTGCGC | -0.0698 |
| CCTACATA | 0.164 |

| Sequence | binding signal [E-score] |
| --- | --- |
| GCAGATAC | 0.0143 |
| ACCTGCTG | -0.268 |
| CTGTTACC | 0.0232 |
| CACCGTCC | -0.224 |
| AAACGTTG | -0.0632 |
| ATGCCGTC | -0.145 |
| GGTTCGGA | -0.163 |
| AGGGACAA | -0.176 |
| GGACAGAA | -0.127 |
| CTGAACAC | -0.199 |
| CATTTATC | 0.187 |
| ATCATTTC | 0.0431 |
| CCAGCAGC | -0.236 |
| CCAGTCCG | -0.32 |
| ACTGCAAT | 0.0152 |
| CAACGCGG | -0.189 |
| GCGGTGAC | -0.289 |
| TAAATACA | 0.333 |
| CCTCCGGC | -0.258 |
| ACCCCACA | -0.3 |
| CCCTCAGA | -0.278 |
| CAAGAATA | -0.0771 |
| CACCTTCG | -0.185 |
| GAGTTGCC | -0.116 |
| AGCAGACA | 0.0619 |

| Sequence | binding signal [E-score] |
| --- | --- |
| AAGCCGGT | -0.157 |
| CTTACGCA | -0.0114 |
| CCGCTAAG | -0.1 |
| ATCGGCAT | 0.171 |
| AGGAGGGG | -0.473 |
| ACTACCCA | 0.312 |
| CTCCCCGC | -0.262 |
| TCGGCTAA | 0.0514 |
| AGCACGCC | 0.0264 |
| CGTCAACG | -0.214 |
| CCTGCCAC | -0.329 |
| CATAATAC | 0.275 |
| CTGCGTTC | -0.134 |
| CTCGCACC | -0.191 |
| AGATGGGA | 0.00281 |
| ACGTGGCT | -0.0619 |
| CCCTTCAG | -0.307 |
| CAGATGCA | -0.199 |
| CTCCCAGC | -0.254 |
| CCCCGTTC | -0.247 |
| ACGACCAA | -0.0477 |
| AATTTTCC | 0.171 |
